{"source": "the supplement of paper PMC8728848", "binders": {"B1": {"name": "PX14375F-bfa-539-21-539 (Bacteroides fragilis) (protein)", "chain": "EDFLQKDPPSSPSQSVFWQKKSDFESALAGTYSVMYSGVFSQIMPCLDGLTDNAIVQHSEGTYGWAKTIAQGDLTPNQGGFVTDIYGNCYKGIARVHILMEQLDQYTGSDISADEKKFMLAQCKALRGYFYSWLYQCYKEVPVVTQSLDLNTMYQPKATRAEVLNRVMTDYDEAISELPDKLYSDSQTSGRFTVSAVKALKARILLFDAYDSNGKAISSKMEEVLTLLQSIKGYSLAARVRDNFISEKQLASPEIMFSVRFLRPNLTHSMDLYYGAWAVLDPTRNMVDAFECTDGKPWGESPLTVRPDESILYGNDDALKKAERAKMFMNRDRRLYESVNHSMMANFVDDGFKDEEVQVNESNNKGPTGFSALKYVQPTDVTPGYSTVSDADIVVLRYAHVLLMIAEAENEAHGATTTALNAINEVRTRSGQPAIEAGISQDDLRERIRNEWRIETCFEGLRYFQLKRWKLMDKRVNGVEDPAYPGYIKVYKPAFEFFPIPQSEIDKAGGVLKQDPAYE"}}, "assay_in_all_cases": "glycan array binding signal (z-score within array); higher = stronger binding", "conditions_in_all_cases": "glycan notation: IUPAC condensed, linker removed", "key": {"Fuc(a1-3)GlcNAc": {"biological_target": "Fuc(a1-3)GlcNAc", "in_short": "(§1)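 Glycan array data came from 3228 arrays in the Consortium for Functional Glycomics database, and only arrays with an available protein sequence were kept. Glycan names were put into IUPAC-condensed notation, and columns mapping to the same glycan were averaged. The binding signal is a within-array Z-score, averaged across arrays of one protein sequence run at different concentrations or buffers and across linkers. A negative Z-score can be read as non-binding.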"}, "[1]": {"biological_target": "Fuc(a1-3)[Gal(b1-4)]Glc6S", "in_short": "as §1"}, "[2]": {"biological_target": "Fuc(a1-3)[Gal(b1-4)]GlcNAc", "in_short": "as §1"}, "[3]": {"biological_target": "Fuc(a1-3)[Gal(b1-4)]GlcNAc(b1-2)Man", "in_short": "as §1"}, "[4]": {"biological_target": "Fuc(a1-3)[Gal(b1-4)]GlcNAc(b1-2)Man(a1-3)[Fuc(a1-3)[Gal(b1-4)]GlcNAc(b1-2)Man(a1-6)]Man(b1-4)GlcNAc(b1-4)GlcNAc", "in_short": "as §1"}, "[5]": {"biological_target": "Fuc(a1-3)[Gal(b1-4)]GlcNAc(b1-2)Man(a1-3)[Fuc(a1-3)[Gal(b1-4)]GlcNAc(b1-2)Man(a1-6)]Man(b1-4)GlcNAc(b1-4)[Fuc(a1-6)]GlcNAc", "in_short": "as §1"}, "[6]": {"biological_target": "Fuc(a1-3)[Gal(b1-4)]GlcNAc(b1-3)Gal(b1-3)[Fuc(a1-4)]GlcNAc", "in_short": "as §1"}, "[7]": {"biological_target": "Fuc(a1-3)[Gal(b1-4)]GlcNAc(b1-3)Gal(b1-4)[Fuc(a1-3)]GlcNAc", "in_short": "as §1"}, "[8]": {"biological_target": "Fuc(a1-3)[Gal(b1-4)]GlcNAc(b1-3)Gal(b1-4)[Fuc(a1-3)]GlcNAc(b1-3)Gal(b1-4)[Fuc(a1-3)]GlcNAc", "in_short": "as §1"}, "[9]": {"biological_target": "Fuc(a1-3)[Gal(b1-4)]GlcNAc(b1-3)GalNAc", "in_short": "as §1"}, "[10]": {"biological_target": "Fuc(a1-3)[Gal(b1-4)]GlcNAc(b1-6)GalNAc", "in_short": "as §1"}, "[11]": {"biological_target": "Fuc(a1-3)[Gal(b1-4)]GlcNAc(b1-6)[Gal(b1-3)GlcNAc(b1-3)]Gal(b1-4)Glc", "in_short": "as §1"}, "[12]": {"biological_target": "Fuc(a1-3)[Gal(b1-4)]GlcNAc6S", "in_short": "as §1"}, "[13]": {"biological_target": "Fuc(a1-3)[Gal3S(b1-4)]Glc", "in_short": "as §1"}, "[14]": {"biological_target": "Fuc(a1-3)[Gal3S(b1-4)]GlcNAc", "in_short": "as §1"}, "[15]": {"biological_target": "Fuc(a1-3)[Gal3S(b1-4)]GlcNAc6S", "in_short": "as §1"}, "[16]": {"biological_target": "Fuc(a1-3)[GalNAc(b1-4)]GlcNAc", "in_short": "as §1"}, "[17]": {"biological_target": "Fuc(a1-3)[GalNAc(b1-4)]GlcNAc6S", "in_short": "as §1"}, "Fuc(a1-4)GlcNAc": {"biological_target": "Fuc(a1-4)GlcNAc", "in_short": "as §1"}, "Fuc(b1-3)GlcNAc": {"biological_target": "Fuc(b1-3)GlcNAc", "in_short": "as §1"}, "Gal(a1-2)Gal": {"biological_target": "Gal(a1-2)Gal", "in_short": "as §1"}, "Gal(a1-3)Gal": {"biological_target": "Gal(a1-3)Gal", "in_short": "as §1"}, "Gal(a1-3)Gal(b1-3)GlcNAc": {"biological_target": "Gal(a1-3)Gal(b1-3)GlcNAc", "in_short": "as §1"}, "[18]": {"biological_target": "Gal(a1-3)Gal(b1-3)GlcNAc(b1-2)Man", "in_short": "as §1"}, "[19]": {"biological_target": "Gal(a1-3)Gal(b1-3)GlcNAc(b1-2)Man(a1-3)[Gal(a1-3)Gal(b1-3)GlcNAc(b1-2)Man(a1-6)]Man(b1-4)GlcNAc(b1-4)GlcNAc", "in_short": "as §1"}, "[20]": {"biological_target": "Gal(a1-3)Gal(b1-3)GlcNAc(b1-3)GalNAc", "in_short": "as §1"}, "[21]": {"biological_target": "Gal(a1-3)Gal(b1-3)GlcNAc(b1-6)GalNAc", "in_short": "as §1"}, "[22]": {"biological_target": "Gal(a1-3)Gal(b1-3)[Fuc(a1-4)]GlcNAc(b1-2)Man(a1-3)[Gal(a1-3)Gal(b1-3)[Fuc(a1-4)]GlcNAc(b1-2)Man(a1-6)]Man(b1-4)GlcNAc(b1-4)GlcNAc", "in_short": "as §1"}, "Gal(a1-3)Gal(b1-4)Glc": {"biological_target": "Gal(a1-3)Gal(b1-4)Glc", "in_short": "as §1"}, "Gal(a1-3)Gal(b1-4)GlcNAc": {"biological_target": "Gal(a1-3)Gal(b1-4)GlcNAc", "in_short": "as §1"}, "[23]": {"biological_target": "Gal(a1-3)Gal(b1-4)GlcNAc(b1-2)Man", "in_short": "as §1"}, "[24]": {"biological_target": "Gal(a1-3)Gal(b1-4)GlcNAc(b1-2)Man(a1-3)[Gal(a1-3)Gal(b1-4)GlcNAc(b1-2)Man(a1-6)]Man(b1-4)GlcNAc(b1-4)GlcNAc", "in_short": "as §1"}, "[25]": {"biological_target": "Gal(a1-3)Gal(b1-4)GlcNAc(b1-3)GalNAc", "in_short": "as §1"}, "[26]": {"biological_target": "Gal(a1-3)Gal(b1-4)GlcNAc(b1-6)GalNAc", "in_short": "as §1"}, "[27]": {"biological_target": "Gal(a1-3)Gal(b1-4)[Fuc(a1-3)]GlcNAc", "in_short": "as §1"}, "[28]": {"biological_target": "Gal(a1-3)Gal(b1-4)[Fuc(a1-3)]GlcNAc(b1-2)Man(a1-3)[Gal(a1-3)Gal(b1-4)[Fuc(a1-3)]GlcNAc(b1-2)Man(a1-6)]Man(b1-4)GlcNAc(b1-4)GlcNAc", "in_short": "as §1"}, "Gal(a1-3)GalNAc": {"biological_target": "Gal(a1-3)GalNAc", "in_short": "as §1"}}, "note": "The list shows a part of the results."}
{"binder": "B1", "values": [{"measurement": "glycan array binding signal (z-score)", "setting": "Fuc(a1-3)GlcNAc", "value": 0.277}, {"measurement": "glycan array binding signal (z-score)", "setting": "[1]", "value": -0.062}, {"measurement": "glycan array binding signal (z-score)", "setting": "[2]", "value": -0.498}, {"measurement": "glycan array binding signal (z-score)", "setting": "[3]", "value": 1.15}, {"measurement": "glycan array binding signal (z-score)", "setting": "[4]", "value": -0.146}, {"measurement": "glycan array binding signal (z-score)", "setting": "[5]", "value": -0.389}, {"measurement": "glycan array binding signal (z-score)", "setting": "[6]", "value": -0.287}, {"measurement": "glycan array binding signal (z-score)", "setting": "[7]", "value": -0.333}, {"measurement": "glycan array binding signal (z-score)", "setting": "[8]", "value": -0.532}, {"measurement": "glycan array binding signal (z-score)", "setting": "[9]", "value": -0.288}, {"measurement": "glycan array binding signal (z-score)", "setting": "[10]", "value": -0.059}, {"measurement": "glycan array binding signal (z-score)", "setting": "[11]", "value": -0.946}, {"measurement": "glycan array binding signal (z-score)", "setting": "[12]", "value": 0.215}, {"measurement": "glycan array binding signal (z-score)", "setting": "[13]", "value": -0.409}, {"measurement": "glycan array binding signal (z-score)", "setting": "[14]", "value": 0.117}, {"measurement": "glycan array binding signal (z-score)", "setting": "[15]", "value": -0.373}, {"measurement": "glycan array binding signal (z-score)", "setting": "[16]", "value": 0.462}, {"measurement": "glycan array binding signal (z-score)", "setting": "[17]", "value": -0.482}, {"measurement": "glycan array binding signal (z-score)", "setting": "Fuc(a1-4)GlcNAc", "value": -0.217}, {"measurement": "glycan array binding signal (z-score)", "setting": "Fuc(b1-3)GlcNAc", "value": -0.08}, {"measurement": "glycan array binding signal (z-score)", "setting": "Gal(a1-2)Gal", "value": -0.206}, {"measurement": "glycan array binding signal (z-score)", "setting": "Gal(a1-3)Gal", "value": -0.526}, {"measurement": "glycan array binding signal (z-score)", "setting": "Gal(a1-3)Gal(b1-3)GlcNAc", "value": -0.042}, {"measurement": "glycan array binding signal (z-score)", "setting": "[18]", "value": -0.257}, {"measurement": "glycan array binding signal (z-score)", "setting": "[19]", "value": 2.35}, {"measurement": "glycan array binding signal (z-score)", "setting": "[20]", "value": -0.277}, {"measurement": "glycan array binding signal (z-score)", "setting": "[21]", "value": -0.221}, {"measurement": "glycan array binding signal (z-score)", "setting": "[22]", "value": 0.263}, {"measurement": "glycan array binding signal (z-score)", "setting": "Gal(a1-3)Gal(b1-4)Glc", "value": 0.077}, {"measurement": "glycan array binding signal (z-score)", "setting": "Gal(a1-3)Gal(b1-4)GlcNAc", "value": -0.52}, {"measurement": "glycan array binding signal (z-score)", "setting": "[23]", "value": -0.187}, {"measurement": "glycan array binding signal (z-score)", "setting": "[24]", "value": 0.78}, {"measurement": "glycan array binding signal (z-score)", "setting": "[25]", "value": -0.25}, {"measurement": "glycan array binding signal (z-score)", "setting": "[26]", "value": -0.184}, {"measurement": "glycan array binding signal (z-score)", "setting": "[27]", "value": -0.104}, {"measurement": "glycan array binding signal (z-score)", "setting": "[28]", "value": -0.52}, {"measurement": "glycan array binding signal (z-score)", "setting": "Gal(a1-3)GalNAc", "value": -0.197}]}
